In US8729064B2, “Heteroaromatic and aromatic piperazinyl azetidinyl amides as monoacylglycerol lipase inhibitors” (Janssen Pharmaceutica, NV, priority 2009, dated 2014) one finds Kd and IC50 data, which are given here for 26 compounds.

The target of assay [1] is T1, purified mutant MGL (mut-MGLL 11-313 L179S L186S) (Homo sapiens, UniProt Q99685, L169S/L176S).
T1 sequence (Q99685 1-303 L169S/L176S): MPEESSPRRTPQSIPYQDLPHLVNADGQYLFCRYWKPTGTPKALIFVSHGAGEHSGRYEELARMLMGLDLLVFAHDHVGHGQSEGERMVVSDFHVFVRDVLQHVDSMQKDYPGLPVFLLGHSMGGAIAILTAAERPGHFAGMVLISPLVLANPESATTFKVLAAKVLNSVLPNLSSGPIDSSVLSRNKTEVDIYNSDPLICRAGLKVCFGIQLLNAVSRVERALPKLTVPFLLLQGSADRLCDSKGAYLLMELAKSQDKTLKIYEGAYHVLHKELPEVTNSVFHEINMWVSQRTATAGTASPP
The assay is classed as binding. The note with it: ThermoFluor, 1,8-ANS dye, pH 7.0; read-out: Example 3 Kd. In general terms: In DSF a fluorescence change marks the thermal transition of the protein.

Assay [2] addresses T1, purified mutant MGL (mut-MGLL 11-313 L179S L186S). The experiment in a line: MGL Enzyme Activity Assay (4MU-B cleavage, rate-based fluorescence). Format: biochemical. To be noted: substrate 4MU-B 10 μM, enzyme 5 nM, 37° C., pH 7; read-out: Example 2 IC50.

As a reminder, the Kd is the concentration at which binding is half-saturated. By IC50 is commonly meant the concentration needed to halve the response being measured. Take `CC(C)(C)Cn1c(COc2ccccc2)cc2cc(C(=O)N3CC(N4CCN(c5ccccn5)CC4)C3)ccc21` [Compound 1, [1-(2,2-Dimethyl-propyl)-2-phenoxymethyl-1H-indol-5-yl]-[3-(4-pyridin-2-yl-piperazin-1-yl)-azetidin-1-yl]-methanone]: the Kd in assay [1] was 1 nM. In addition, the IC50 in assay [2] is 31 nM.

For `O=C(c1ccc2nc(C3CCCCC3)oc2c1)N1CC(N2CCN(c3ccccn3)CC2)C1` [Compound 2, (2-Cyclohexyl-benzooxazol-6-yl)-[3-(4-pyridin-2-yl-piperazin-1-yl)-azetidin-1-yl]-methanone], in assay [1], the dissociation constant (Kd) stood at 130 nM. Moreover, the IC50 in assay [2] came out at 50 nM.

As to `O=C(c1cccc2nc(-c3cccc(F)c3)oc12)N1CC(N2CCN(c3ccccn3)CC2)C1` [Compound 3, [2-(3-Fluoro-phenyl)-benzooxazol-7-yl]-[3-(4-pyridin-2-yl-piperazin-1-yl)-azetidin-1-yl]-methanone], in assay [1], the Kd is 91 nM. Besides, the IC50 in assay [2] came out at 55 nM.

For `Cc1ccc(-c2cc3cc(C(=O)N4CC(N5CCN(c6ccccn6)CC5)C4)ccc3n2CC(C)C)cc1` [Compound 4, (1-Isobutyl-2-p-tolyl-1H-indol-5-yl)-[3-(4-pyridin-2-yl-piperazin-1-yl)-azetidin-1-yl]-methanone], in assay [1], the Kd came out at 2 nM. Besides, the IC50 in assay [2] amounted to 60 nM.

For the compound `O=C(c1cccc2nc(-c3ccc(F)cc3)oc12)N1CC(N2CCN(c3ccccn3)CC2)C1` [Compound 6, [2-(4-Fluoro-phenyl)-benzooxazol-7-yl]-[3-(4-pyridin-2-yl-piperazin-1-yl)-azetidin-1-yl]-methanone], the Kd in assay [1] worked out at 48 nM. In assay [2], the IC50 amounted to 100 nM.

As to `COc1ccc(-c2nc3cccc(C(=O)N4CC(N5CCN(c6ccccn6)CC5)C4)c3o2)cc1` [Compound 7, [2-(4-Methoxy-phenyl)-benzooxazol-7-yl]-[3-(4-pyridin-2-yl-piperazin-1-yl)-azetidin-1-yl]-methanone], the Kd in assay [1] was 83 nM. For the same compound, the IC50 in assay [2] was 186 nM.

Consider `CC(C)Cc1cc2cc(C(=O)N3CC(N4CCN(c5ccccn5)CC4)C3)ccc2n1CC(C)C` [Compound 8, (1,2-Diisobutyl-1H-indol-5-yl)-[3-(4-pyridin-2-yl-piperazin-1-yl)-azetidin-1-yl]-methanone], for which the Kd in assay [1] amounted to 330 nM. Further, the IC50 in assay [2] came out at 220 nM.

For the compound `CC(C)Cn1c(COc2ccccc2)cc2cc(C(=O)N3CC(N4CCN(c5ccccn5)CC4)C3)ccc21` [Compound 9, (1-Isobutyl-2-phenoxymethyl-1H-indol-5-yl)-[3-(4-pyridin-2-yl-piperazin-1-yl)-azetidin-1-yl]-methanone], the Kd in assay [1] amounted to 40 nM. Moreover, the IC50 in assay [2] was 230 nM.

For the compound `CC(C)(C)Cn1c(-c2ccccc2)cc2cc(C(=O)N3CC(N4CCN(c5ccccn5)CC4)C3)ccc21` [Compound 10, [1-(2,2-Dimethyl-propyl)-2-phenyl-1H-indol-5-yl]-[3-(4-pyridin-2-yl-piperazin-1-yl)-azetidin-1-yl]-methanone], the Kd in assay [1] worked out at 20 nM. Besides, in assay [2], the IC50 stood at 330 nM.

Turning to `O=C(c1ccc2c(c1)cc(COc1ccccc1)n2CC1CCCCC1)N1CC(N2CCN(c3ccccn3)CC2)C1` [Compound 11, (1-Cyclohexylmethyl-2-phenoxymethyl-1H-indol-5-yl)-[3-(4-pyridin-2-yl-piperazin-1-yl)-azetidin-1-yl]-methanone], the Kd in assay [1] amounted to 10 nM. In addition, the IC50 in assay [2] was 350 nM.

Consider `Cn1c(CC2CCCC2)cc2cc(C(=O)N3CC(N4CCN(c5ccccn5)CC4)C3)ccc21` [Compound 12, (2-Cyclopentylmethyl-1-methyl-1H-indol-5-yl)-[3-(4-pyridin-2-yl-piperazin-1-yl)-azetidin-1-yl]-methanone], for which the dissociation constant Kd in assay [1] was determined as 5000 nM. Moreover, the IC50 in assay [2] was 360 nM.

Turning to `CC(C)Cn1c(-c2ccccc2)cc2cc(C(=O)N3CC(N4CCN(c5ccccn5)CC4)C3)ccc21` [Compound 13, (1-Isobutyl-2-phenyl-1H-indol-5-yl)-[3-(4-pyridin-2-yl-piperazin-1-yl)-azetidin-1-yl]-methanone], the Kd in assay [1] was found to be 30 nM. For the same compound, the IC50 in assay [2] was 430 nM.

Take `O=C(c1ccc2[nH]c(CC3CCCCC3)cc2c1)N1CC(N2CCN(c3ccccn3)CC2)C1` [Compound 14, (2-Cyclohexylmethyl-1H-indol-5-yl)-[3-(4-pyridin-2-yl-piperazin-1-yl)-azetidin-1-yl]-methanone]: the Kd in assay [1] amounted to 5000 nM. Further, the IC50 in assay [2] was found to be 440 nM.

`COc1ccccc1Cc1nc2cc(C(=O)N3CC(N4CCN(c5ccccn5)CC4)C3)ccc2o1` [Compound 15, [2-(2-Methoxy-benzyl)-benzooxazol-5-yl]-[3-(4-pyridin-2-yl-piperazin-1-yl)-azetidin-1-yl]-methanone]: the Kd in assay [1] is 1850 nM. Moreover, the IC50 in assay [2] is 470 nM.

For the compound `COc1ccccc1N1CCN(C2CN(C(=O)c3ccc4c(c3)cc(COc3ccccc3)n4CC(C)C)C2)CC1` [Compound 17, (1-Isobutyl-2-phenoxymethyl-1H-indol-5-yl)-{3-[4-(2-methoxy-phenyl)-piperazin-1-yl]-azetidin-1-yl}-methanone], the Kd in assay [1] was determined as 4000 nM. The IC50 in assay [2] stood at 880 nM.

Regarding `O=C(c1ccc2c(c1)cc(Cc1ccccc1)n2CC1CCCCC1)N1CC(N2CCN(c3ccccn3)CC2)C1` [Compound 18, (2-Benzyl-1-cyclohexylmethyl-1H-indol-5-yl)-[3-(4-pyridin-2-yl-piperazin-1-yl)-azetidin-1-yl]-methanone], in assay [1], the Kd is 50 nM. Besides, in assay [2], the 50% inhibitory concentration (IC50) stood at 920 nM.

Take `CC(C)(C)c1nc2ccc(C(=O)N3CC(N4CCN(c5ccccn5)CC4)C3)cc2o1` [Compound 19, (2-tert-Butyl-benzooxazol-6-yl)-[3-(4-pyridin-2-yl-piperazin-1-yl)-azetidin-1-yl]-methanone]: in assay [1], the dissociation constant (Kd) amounted to 172 nM. The IC50 in assay [2] was 1070 nM.

For `COc1cccc(-c2nc3cc(C(=O)N4CC(N5CCN(c6ccccn6)CC5)C4)ccc3o2)c1` [Compound 20, [2-(3-Methoxy-phenyl)-benzooxazol-5-yl]-[3-(4-pyridin-2-yl-piperazin-1-yl)-azetidin-1-yl]-methanone], the Kd in assay [1] was determined as 5560 nM. The IC50 in assay [2] was found to be 1340 nM.

On to `COc1ccccc1N1CCN(C2CN(C(=O)c3ccc4c(c3)cc(Cc3ccccc3)n4CC(C)C)C2)CC1` [Compound 21, (2-Benzyl-1-isobutyl-1H-indol-5-yl)-{3-[4-(2-methoxy-phenyl)-piperazin-1-yl]-azetidin-1-yl}-methanone], for which the equilibrium dissociation constant (Kd) in assay [1] was determined as 6670 nM. Besides, the IC50 in assay [2] was 1420 nM.

For `COc1ccccc1N1CCN(C2CN(C(=O)c3ccc4c(c3)cc(COc3ccccc3)n4CC(C)(C)C)C2)CC1` [Compound 22, [1-(2,2-Dimethyl-propyl)-2-phenoxymethyl-1H-indol-5-yl]-{3-[4-(2-methoxy-phenyl)-piperazin-1-yl]-azetidin-1-yl}-methanone], the equilibrium dissociation constant (Kd) in assay [1] was 5560 nM. In assay [2], the concentration for half-maximal inhibition (IC50) was found to be 1670 nM.

For the compound `COc1ccccc1N1CCN(C2CN(C(=O)c3ccc4c(c3)cc(Cc3ccccc3)n4CC3CCCCC3)C2)CC1` [Compound 23, (2-Benzyl-1-cyclohexylmethyl-1H-indol-5-yl)-{3-[4-(2-methoxy-phenyl)-piperazin-1-yl]-azetidin-1-yl}-methanone], in assay [1], the Kd came out at 2500 nM. For the same compound, the IC50 in assay [2] was 1890 nM.

Regarding `COc1ccccc1N1CCN(C2CN(C(=O)c3ccc4c(c3)cc(-c3ccccc3)n4CC(C)(C)C)C2)CC1` [Compound 24, [1-(2,2-Dimethyl-propyl)-2-phenyl-1H-indol-5-yl]-{3-[4-(2-methoxy-phenyl)-piperazin-1-yl]-azetidin-1-yl}-methanone], the Kd in assay [1] was found to be 5000 nM. The half-maximal inhibitory concentration (IC50) in assay [2] is 1980 nM.

On to `CC(C)(C)Cn1c(-c2ccccc2)cc2cc(C(=O)N3CC(N4CCN(c5ccc(F)cc5)CC4)C3)ccc21` [Compound 25, [1-(2,2-Dimethyl-propyl)-2-phenyl-1H-indol-5-yl]-{3-[4-(4-fluoro-phenyl)-piperazin-1-yl]-azetidin-1-yl}-methanone], for which the Kd in assay [1] came out at 6670 nM. The IC50 in assay [2] was 3810 nM.

`CC(C)(C)Cn1c(C(C)(C)C)cc2cc(C(=O)N3CC(N4CCN(c5ccccn5)CC4)C3)ccc21` [Compound 26, [2-tert-Butyl-1-(2,2-dimethyl-propyl)-1H-indol-5-yl]-[3-(4-pyridin-2-yl-piperazin-1-yl)-azetidin-1-yl]-methanone]: the Kd in assay [1] was 11100 nM. Also, in assay [2], the half-maximal inhibitory concentration (IC50) stood at 5460 nM.

As to `COCC(=O)c1c(-c2ccc(C)cc2)[nH]c2ccc(C(=O)N3CC(N4CCN(c5ccccn5)CC4)C3)cc12` [Compound 27, 2-Methoxy-1-{5-[3-(4-pyridin-2-yl-piperazin-1-yl)-azetidine-1-carbonyl]-2-p-tolyl-1H-indol-3-yl}-ethanone], in assay [1], the Kd turned out to be 28600 nM. In assay [2], the IC50 is 9440 nM.

Turning to `CCCc1cc2cc(C(=O)N3CC(N4CCN(c5ccccn5)CC4)C3)ccc2n1CC1CCCCC1` [Compound 28, (1-Cyclohexylmethyl-2-propyl-1H-indol-5-yl)-[3-(4-pyridin-2-yl-piperazin-1-yl)-azetidin-1-yl]-methanone], the Kd in assay [1] was 90 nM.
